# Assay results from ChEMBL document CHEMBL4888484, “Replenishing the malaria drug discovery pipeline: Screening and hit evaluation of the MMV Hit Generation Library 1 (HGL1) against asexual blood stage Plasmodium falciparum ,using a nano luciferase reporter read-out” (2022).
# Screen size: about 150,000 compounds; about 540 (0.36%) showed an effect of 50% or more. Some of the results follow.
# Test system: Plasmodium falciparum
# Assay: Primary screen in NF54 nanoGlo assay, in single point, at 2uM, 72h; a lower Z score goes with more inhibition
# Format: functional, Erythrocyte
# Settings: timepoint 72 hour
SMILES,% Inhibition,Z score
Brc1ccc(-c2csc(Cc3nc(-c4ccc(Br)cc4)cs3)n2)cc1,-3%,0.3
Cc1cnc(C)c(N2CCC(n3c(=O)[nH]c4ccccc43)CC2)n1,-6%,1.15
O=C(N[C@H]1C[C@@H](O)C1)c1cc2c(F)c(Br)ccc2[nH]1,-8%,0.99
CCc1n[nH]c(NC(=O)c2cc(Br)cnc2C2CC2)n1,-4%,0.69
CNC(=O)c1cccc(-n2ccnc2-c2ncc[nH]2)c1,-16%,1.81
O=C(CCc1nnn2c1CN(C(=O)Nc1cccc(F)c1)CC2)N1CCOCC1,-4%,0.81
COc1ccc(CCNC(=O)N2CCC(Oc3ccncc3Cl)CC2)cc1,-14%,2.62
CC1=C(C(=O)Nc2ccccc2)C(c2ccc(Cl)cc2)C(C(=O)Nc2ccccc2)=C(C)N1,-3%,0.37
O=C(Cc1cccc2ccccc12)Nc1ccc(Oc2ccccc2)cc1,1%,-0.29
O=C(Nc1cnc(N2CCCCCC2)nc1)C1CCCC1,-11%,1.82
Cc1noc([C@@H]2CN(S(=O)(=O)c3ccc4c(c3)CCCC4)C[C@H]2C(N)=O)n1,-5%,0.79
CCc1nn(CCS(=O)(=O)N(C)C)c(=O)c(C#N)c1CC,24%,-3.21
O=C(NCc1ccccc1)[C@@H]1CCCCn2nnnc21,-16%,1.85
NS(=O)(=O)c1cccc(S(F)(F)(F)(F)F)c1,-18%,1.96
O=C(NCc1ccccc1C(F)(F)F)[C@H]1CCCN(c2ncnc3nn(-c4ccc(F)cc4)cc23)C1,-3%,0.3
C[C@@H](Cc1ccco1)NC(=O)NCCn1ccnc1,-9%,1.09
CN(Cc1noc2c1CCCC2)C1CCN(c2nc3ccccc3o2)CC1,-11%,1.54
CNC(=O)[C@@H](NC(=O)CNC(=O)c1ccc(Cl)cc1)C(C)(C)C,38%,-4.91
CCCC(=O)N1CCCC(C(=O)N2CCCCC2C(=O)N2CCOCC2)C1 (stereo not given),5%,-0.75
Cc1cccc(NC(=O)N2CCS(=O)(=O)C[C@H]2C2CCC2)c1,-12%,1.61
O=C(NCC(O)c1ccccc1Cl)C1CCCN1 (stereo not given),1%,-0.1
CCC(CC)n1ccc(C(=O)OCC2CCOCC2)n1,-4%,0.39

SMILES,% Inhibition,Z score
COc1ccnc(-c2cccc(C(=O)NCCN3CCCC[C@@H]3CO)c2)n1,-5%,0.93
CC1=C(C(=O)N(Cc2ccncc2)C2CCCCC2)OCCO1,4%,-0.61
COc1nccnc1NCCc1nc(C(C)C)cs1,9%,-1.37
COC(=O)[C@H]1C[C@@H](C(=O)NCc2cccc(OC)c2)[C@@H](c2ccccc2F)N1C,7%,-0.98
FCC1CN(Cc2cccc3cn[nH]c23)C1,-6%,1.11
C[C@@H](COc1ccccc1F)NC(=O)NC(C(N)=O)C(N)=O,-1%,0.07
O=C(Nc1ccc(F)cc1)c1nn[nH]c1NS(=O)(=O)c1ccccc1,31%,-3.46
CC(C)C(=O)N[C@@H](N1CCOCC1)C(Cl)(Cl)Cl,-5%,1
CCCCc1oc2ccccc2c1CN1CCC(C(=O)N2CCCC2)CC1,-8%,0.97
COc1ccc(Cl)cc1C(=O)N1CCC(N2CC(=O)N(C3CC3)C2=O)CC1,-13%,1.5
CCn1nc(C)nc1NC(=O)[C@H]1C2CCC(CC2)[C@@H]1C(F)(F)F,-13%,1.81
Nc1nc(NCc2ccc(S(N)(=O)=O)cc2)cc([C@H]2CCOC2)n1,-14%,1.47
O=C1N(CC2CCCCC2)CCC[C@@]1(O)CN[C@H]1CC[C@H](O)CC1,4%,-0.53
CCc1ccc(O[C@@H](C)C(=O)OC)c(COc2ccc(-n3c(=O)cc(C(F)(F)F)n(C)c3=O)cc2)c1,39%,-1.12
O=C(O)C1(Oc2ccc3ncccc3c2)CCN(Cc2ccoc2)CC1,-9%,1.15
CCN(CC)Cc1nc(-c2cc(OCC(F)F)ccn2)no1,0%,0.01
Cc1nc(CNc2ccn(CCCC(=O)N(C)C)n2)cs1,-7%,1.06
Cc1cc(C(=O)NCc2ccc(OC(C)(C)C)nc2)n(C)n1,-6%,0.47
CN(C)[C@H]1CCC[C@@H]1Nc1nccs1,-3%,0.66
Cc1ccc(-c2noc(-c3cn(Cc4ccc(NC(=O)Nc5ccc(C)cc5C)cc4)cn3)n2)cc1,-11%,1.46
O=C(Nc1ccc(Cl)cn1)c1ccc2nsnc2c1,10%,-1.25
O=C(NCc1nnc2ccccn12)c1ccc2c(c1)OCO2,-6%,1.03

SMILES,% Inhibition,Z score
C=CCn1nnnc1CCCc1ccccc1,0%,0.01
Cn1cncc1CNCc1ccc2c(c1)CN(C(=O)OC(C)(C)C)C2,-8%,1.07
O=C(NC[C@H]1CCCOC1)C1CN(CC(F)F)C1,-12%,2.01
Cc1nc(C)c(CCNc2ccc(F)cn2)s1,1%,-0.15
CCCn1cc(S(=O)(=O)NCc2ccnc(C)c2)cn1,-3%,0.61
CC(C)c1cc(CN[C@@H](C)c2ccc(-n3cnnn3)cc2)on1,-6%,1.15
NC(=O)c1coc(CNC(=O)c2ccc3c(c2)CCCCC3=O)n1,-3%,0.38
CC1=C(C(=O)NC2CCN(S(=O)(=O)c3ccccc3)CC2)[C@H](C)NC(=O)N1,5%,-0.67
CC(C)(C)CC(=O)Nc1ccc2c(c1)cc(C(=O)Nc1ccccc1)n2Cc1ccccc1F,-3%,0.36
CCCCn1nccc1NC(=O)N[C@@H](C)Cn1cncn1,-15%,2.14
Cc1cccc(CN2CCN(C(=O)Cc3c[nH]cn3)[C@@H](C)C2=O)c1,-4%,0.51
CC(C)n1cc(S(=O)(=O)N2CCC(=O)Nc3cnccc32)cn1,-10%,1.33
CNc1nc(N2C[C@H]3CC[C@@H](C2)N(C)C3=O)nc2c1CCC2,6%,-0.76
O=C(Cc1nnc(-c2ccc3ncccc3c2)o1)Nc1ccc(F)cc1Cl,-10%,1
O=C(NCC(=O)N1CC[C@H](Oc2ncccc2Br)C1)OCc1ccccc1,-3%,0.63
O=C(c1cc(Br)ccc1Cl)N1CC(CN2C(=O)CCC2=O)C1,-18%,2.33
O=c1ccn(-c2ccc(F)c(F)c2)nc1-c1nc(-c2ccccc2)no1,-2%,0.3
C1CCC(n2nc(C3CC3)nc2C2CCC2)CC1,-14%,1.39
O=C(NC1CCCC1)C1CCN(S(=O)(=O)c2cc(Cl)ccc2Cl)CC1,-12%,1.66
CN(C(=O)C(C)(C)Nc1ncc(C(F)(F)F)cc1Cl)c1ccc(Cl)cc1,59%,-7.64
Cc1ccc(N2C[C@@H](C(=O)NCc3nnc(C4CC4)o3)CC2=O)cc1,-12%,1.6
Cc1cccc2c(=O)n(CC(=O)NCCCC3(C4OCCO4)CCCCCC3)cnc12,1%,-0.18

SMILES,% Inhibition,Z score
Cc1nc(CCCNC(=O)CC[C@H](C)N2CCN(C)CC2)sc1C,-2%,0.24
COc1ccc(Br)cc1CN,-9%,1.75
CC(C)[C@@H]1CCCN1C(=O)CCn1nnc2ccccc2c1=O,-4%,0.48
CS(=O)(=O)N1CC[C@H](n2cc(COCC3CC3)nn2)C1,-5%,0.88
O=C(Nc1cnn(CCN2CCCCC2)c1)C(=O)Nc1cccc2cccnc12,-15%,2.43
O=C(NC[C@H]1CCc2ccccc2O1)c1ccn2nnnc2c1,2%,-0.32
CC(C)CN1C[C@@H]2CN(C(=O)Nc3ccc(F)cc3)CCN2C(C)(C)C1,-12%,1.52
CCCC(=O)N1CC(OCc2ccc(Cl)cc2)C1,-5%,0.73
CC(C)Cn1nccc1C(=O)NCc1ccnc(C#N)c1,6%,-1.1
O=C(NC1CCN(c2[nH]cnc3ncnc2-3)CC1)C12CC(c3ccccc3)(C1)C2,0%,-0.06
Cn1ncc(Cl)c1C(=O)NC[C@H]1CCCO1,3%,-0.44
CC(C)(C)C[C@H]1CCCN1Cc1ccc2cn[nH]c2c1,-7%,1
O=C(CCc1ccc2c(c1)OCO2)Oc1ccc(N2CCCC2=O)cc1,1%,-0.1
CC(C)CNC(=O)Cc1cccc(N(Cc2ccc(F)cc2)C(=O)CC(C)C)c1,-12%,1.22
CCc1ccc(-n2ncc3c2NC(=O)C[C@]32C(=O)N(CC(N)=O)c3ccccc32)cc1,-4%,0.43
C[C@H](O)C1CCN(C(=O)OC(C)(C)C)CC1,-3%,0.63
CCc1nc(-c2ccccc2)c(-c2ccccc2)c2cc(OC)c(OC)cc12,-7%,1.09
O=C(CCc1c(-c2ccc(Cl)cc2)nc2ccc(-c3ccccc3Cl)cn12)NCCN1CCOCC1,-1%,0.14
CCN(CC)S(=O)(=O)Cc1cccc(C)c1,-9%,1.21
